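1) Cells in 96-well plates. 2) Compound, 48 h, 5 concentrations. 3) Linear interpolation between surrounding doses. 4) Unreached endpoint = highest concentration. GI50 marks 50% less growth.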 Calls of active or inactive are those of the source. No stated cut-off is given here; in the data, active = GI50 up to about 1.1 µM and inactive = higher.
System: NCI-H322M
Test: NCI-60 cell line screen, 48 h

| SMILES | GI50 |
| --- | --- |
| Cc1cc(C)c2c(c1)CN1CN2Cc2cc(C)cc(C)c21 | inactive: 31.8 µM |
| CCCOC1OC(CS(=O)(=O)O)C(O)C(O)C1O (stereo not drawn) | inactive: > 100 µM |
| CC(CC[C@@H](C)C1CCC2[C@@H]3CC(O)C4CC(O)[C@@H](O)C[C@]4(C)C3CC[C@@]21C)C(C)(C)C (stereo partly drawn) | inactive: > 100 µM |
| CNC(=O)N(CCC#N)CCN(C(=O)NC)c1ccccc1 | inactive: > 100 µM |
| COC(=O)C1CCC[C@H]2C(CO)=C(C)C(=O)[C@@H]12 (stereo partly drawn) | inactive: > 100 µM |
| O=c1ccc2c(Cl)cccc2o1 | inactive: > 100 µM |
| CCCCCCCCCC(O)CC(=O)c1c(O)cccc1O (stereo not drawn) | inactive: 20.6 µM |
| COc1ccc(-c2c(C#N)c(N)n(C3OCC(O)C(O)C3O)c(=S)c2C#N)cc1 (stereo not drawn) | inactive: > 100 µM |
| CCOC(=O)C1(c2ccccc2)CCC(=O)CC1 | inactive: > 100 µM |
| CCC12C=CCN3CC[C@]4(C(=C(C(=O)OC)[C@@H]1Nc1ccn(C5OC(COC(C)=O)C(OC(C)=O)C5OC(C)=O)c(=O)n1)Nc1ccccc14)C32 (stereo partly drawn) | inactive: 5.32 µM |
| Clc1cc(Cl)cc(/N=C/C=C/Nc2cc(Cl)cc(Cl)c2)c1 | inactive: 23.2 µM |
| CCOC(=O)c1ccc(N[C@@H]2c3cc4c(cc3C(c3cc(OC)c(O)c(OC)c3)[C@H]3C(=O)OCC32)OCO4)cc1O (stereo partly drawn) | inactive: 2.2 µM |
| CCCCC(=O)OCC(=O)[C@]1(O)Cc2c(O)c3c(c(O)c2[C@@H](OC2CC(NC(=O)C(F)(F)F)C(O)C(C)O2)C1)C(=O)c1c(OC)cccc1C3=O (stereo partly drawn) | inactive: 2.27 µM |
| CN1CCCN(C)CCCN(C)CCCN(C)CCC1 | inactive: > 100 µM |
| Clc1nncc2sc(-c3ccccc3)nc12 | inactive: 15.8 µM |
| N=C(N)N/N=C(/c1ccccc1)c1ccc(O)cc1O | inactive: 32.4 µM |
| COc1ccc(C)cc1C1CCC(=O)O1 (stereo not drawn) | inactive: > 100 µM |
| CC(=O)OC[C@H]1[C@@H]2C(CC[C@]13CO3)OC(=O)CC(C)[C@]2(C)CCc1ccoc1 (stereo partly drawn) | inactive: > 100 µM |
| S=c1oc(CCCCCCCCc2nn(CNc3ccc(Cl)cc3)c(=S)o2)nn1CNc1ccc(Cl)cc1 | inactive: > 100 µM |
| O=C(Nc1ccccc1C(=O)NCc1ccccc1)/C(=C/c1ccccc1)NC(=O)c1ccccc1 | inactive: > 100 µM |
| C[Si](C)(C)C#CCO[Si](C)(C)C | inactive: > 100 µM |
| CC1OC(OC2C(O[C@H]3CC[C@@]4(C)C(=CC[C@H]5[C@@H]6C[C@@H]7O[C@]8(CC[C@@H](C)CO8)[C@@H](C)[C@@H]7[C@@]6(C)CC[C@@H]54)C3)OC(CO)C(O)C2O)C(O)C(O)C1O (stereo partly drawn) | inactive: 2.01 µM |
| CCCCc1ccc(Nc2nc(SC)c3[nH]cnc3n2)cc1 | inactive: > 88.3 µM |
| COc1cc2c(oc(=O)c3c4occc4cc(OC)c23)c2cccc(O)c12 | inactive: > 100 µM |

| SMILES | GI50 |
| --- | --- |
| N#CC(OC1OC(COC2OC(CO)C(O)C(O)C2O)C(O)C(O)C1O)c1ccccc1 (stereo not drawn) | inactive: > 225 µM |
| CC1[C@@H](OCc2ccccc2)COC(=O)N1Cc1ccccc1 (stereo partly drawn) | inactive: > 100 µM |
| COc1cc(O)c2c(c1)OCC(Cc1ccc(O)cc1)C2=O (stereo not drawn) | inactive: > 100 µM |
| CSc1ccc(NC(=O)CCl)cc1 | inactive: > 10 µM |
| c1nc2cscc2c2cscc12 | inactive: > 100 µM |
| COCn1c(C)c(C)c2c(=O)oc(=O)[nH]c21 | inactive: > 100 µM |
| Cn1c(=O)c2c(nc(N3CCOCC3)n2CCCNCC(O)c2ccc(O)c(O)c2)n(C)c1=O (stereo not drawn) | inactive: > 100 µM |
| O=C(O)C1=CNC(C(=O)O)=NN1 | inactive: > 100 µM |
| Cc1ccc(S(=O)(=O)OCCN(CCOS(=O)(=O)c2ccc(C)cc2)c2ccc(C=O)cc2)cc1 | inactive: 22.7 µM |
| Clc1ccc(N/N=C(\c2ccccc2)c2ccccn2)nc1 | active: 0.074 µM |
| O=C1C(N2CCOCC2)=C(Cl)C(=O)c2ncccc21 | inactive: > 10 µM |
| ClC(Cl)(Cl)C1=N[C@H]2[C@H](Br)[C@@H]3O[C@@H](c4ccccc4)[C@H](c4ccccc4)O[C@@H]3[C@H]2O1 | inactive: 19.6 µM |
| CCN(CC)CCCC(C)Nc1ccnc2ccc3nn(C)nc3c12 (stereo not drawn) | inactive: 35.2 µM |
| O=c1[nH]nc(Cc2ccccc2)n1/N=C/c1cccs1 | inactive: > 100 µM |
| Cn1nc(/C=C\C(=O)N2CC(CCl)c3c2cc(N)c2ccccc32)cc1/C=C/C(=O)N1CC(CCl)c2c1cc(N)c1ccccc21 (stereo not drawn) | active: < 0.01 µM |
| COC(=O)/C=C(\C(=O)OC)c1cc(C)c2cc(C(C)C)ccc(C)c1-2 | inactive: > 100 µM |
| Nc1ncnc2c1ncn2C1OC(COC2C(CO)OC(OC(C(=O)O)C(O)C(OP(=O)(O)O)C(O)C(=O)O)C(O)C2O)C(O)C1O (stereo not drawn) | inactive: > 100 µM |
| CC1(C)CC2C=C(C=O)C3(C=O)CC3(C)C2C1 (stereo not drawn) | inactive: 11.8 µM |
| CCCCCCCCCCCCCCCC(=O)OCC1CCCN2CCCCC12 (stereo not drawn) | inactive: > 100 µM |
| COc1cccc(C2C(C(=O)O)=C(CO)Oc3cc4c(cc32)OCO4)c1OC (stereo not drawn) | inactive: > 100 µM |
| COc1ccccc1NC(=O)C(=O)C(c1cnc2ccc([N+](=O)[O-])cc2n1)[N+](=O)[O-] (stereo not drawn) | inactive: > 100 µM |
| CCOC(=O)N1C(=O)C2C3C=CC(C2C1=O)C1C2C(=O)N(C(=O)OCC)C(=O)C2C31 (stereo not drawn) | inactive: > 100 µM |
| COc1c2c(cc3oc(=O)ccc13)OC(C)(C)C=C2 [XANTHOXYLETIN] | inactive: 35.3 µM |
| COc1ccc2c(c1)CCc1c-2nc2cc3c(cc2c1O)OCO3 | inactive: > 100 µM |

| SMILES | GI50 |
| --- | --- |
| Cc1cc(CC(O)(C(F)(F)F)C(F)(F)F)cc(CC(O)(C(F)(F)F)C(F)(F)F)n1 | inactive: 5.04 µM |
| Cn1c(CCC#N)nc2ccc(Br)cc2c1=O | inactive: 88.3 µM |
| Cc1nc(N)nc(N)c1CCCCc1ccc(N)cc1 | inactive: 7.85 µM |
| CC(=O)Nc1ccc(C2C(C(=O)Nc3ccccc3)=C(C)NC(C)=C2C(=O)Nc2ccccc2)cc1 | inactive: > 100 µM |
| Nc1ncnc2c1nc(Cl)n2C1OC2COP(=O)(O)OC2C1O (stereo not drawn) | inactive: > 28.5 µM |
| CCOc1ccc(NC(=O)C(=O)CC(=O)c2c(C)[n+]([O-])c3ccccc3[n+]2[O-])cc1 | inactive: > 100 µM |
| COc1ccc2[nH]c3c(c2c1)[C@H](C)C[C@@H]1C(=O)N(c2ccccc2)C(=O)[C@H]31 | inactive: 32.6 µM |
| O=C(O)/C=C\C(=O)Nc1ccccn1 | inactive: > 100 µM |
| CCC(=O)NCCc1c[nH]c2ccc(OC)cc12 | inactive: > 100 µM |
| O=C1CCC2(O)C3Cc4ccc(Oc5nnnn5-c5ccccc5)c5c4C2(CCN3CC2CC2)C1O5 (stereo not drawn) | inactive: > 100 µM |
| BrC1=CC=C2NCCCCCC/N=C3\C=CC(Br)=CC=C3NCCCCCC/N=C\2C=C1 | inactive: > 25.5 µM |
| Cc1cccc(C(O)c2ccncc2)c1O (stereo not drawn) | inactive: > 100 µM |
| O=c1c2ccccc2[nH]n1Cc1ccccc1 | inactive: > 100 µM |
| CCCCc1c2c(nc3c1CCC/C3=C\c1ccccc1)/C(=C/c1ccccc1)CCC2 | inactive: > 100 µM |
| COc1cc(OC)c2c(c1)C(=O)C(CC1(C)OCCCO1)=CC2=O | inactive: 16.3 µM |
| C=CC/N=C1\N=C(C)C(C(=O)OCC)S1 (stereo not drawn) | inactive: > 100 µM |
| COc1cc2c(c(OC)c1)[C@H](C)N(Cc1ccccc1)C(C)C2 (stereo partly drawn) | inactive: 87.7 µM |
| COc1cccc(C2CC(=O)c3cccn32)c1 (stereo not drawn) | inactive: > 100 µM |
| CN1CCN(CCCBr)CC1 | inactive: > 100 µM |
| COc1ccc2nc3cc(Cl)ccc3c(NC(C)CCCN(CCCl)CCCl)c2c1 (stereo not drawn) | active: 0.783 µM |
| CCC(CO)Nc1nc2c(c(=O)n(C)c(=O)n2C)n1CCO (stereo not drawn) | inactive: > 100 µM |
| CC(=O)C(CN(CC(C)C)CC(C)C)C(c1ccccc1)c1c(O)c2ccccc2oc1=O (stereo not drawn) | inactive: > 100 µM |
| Cc1ccc(/C=N/NS(=O)(=O)c2ccccc2)cc1C | inactive: > 100 µM |
| CC(=O)OC1CCn2c1nc1cc([N+](=O)[O-])c(C)cc12 (stereo not drawn) | inactive: > 100 µM |

| SMILES | GI50 |
| --- | --- |
| COC(=O)c1ccccc1NC(=O)/C(=N\NC(C)(C)C)C(C#N)c1nc(-c2ccc([N+](=O)[O-])cc2)cs1 (stereo not drawn) | inactive: > 100 µM |
| Cc1ccccc1CN1CC=c2ccccc2=N1 | inactive: > 100 µM |
| Cc1cccc(NC(=O)/C=C/c2ccc(N(CCC#N)CCC#N)cc2C)c1 | inactive: > 100 µM |
| COc1ccccc1NC(=O)c1nc2ccc([N+](=O)[O-])cc2nc1C | inactive: > 100 µM |
| C[N+](C)(C)CC(=O)N/N=C(/CC1OC(=O)c2ccccc21)c1ccccc1O (stereo not drawn) | inactive: 27.5 µM |
| COc1ccc2[nH]c3c(O)nncc3c2c1 | inactive: > 100 µM |
| COC(=O)C1(CCCCCBr)CCCCCCCCCCC1=O (stereo not drawn) | inactive: 25.8 µM |
| Cc1cc2c(=O)cc(-c3ccc(O)cc3)oc2c(C(=O)O)c1C | inactive: > 100 µM |
| COC[C@@H](/N=C/c1ccc(OC)cc1)C(C)C | inactive: > 100 µM |
| COc1ccc(C(=O)c2sc(Nc3ccc(Cl)cc3)nc2N)cc1 | inactive: 15.3 µM |
| COc1ccc2c(c1)C(=O)C1CCC(=O)N1C2c1ccc2c(c1)OCO2 (stereo not drawn) | inactive: 19.1 µM |
| Cc1cn(CCCCCCOC(=O)NC(CCCNC(=N)N)C(=O)O)c(=O)[nH]c1=O (stereo not drawn) | inactive: > 100 µM |
| CCC1OC(=O)CC(O)C(C)C(OC2OC(C)C(O)C(N(C)C)C2O)C(CC=O)CC(C)C(=O)/C=C/C2(C)OC2C1C (stereo not drawn) | inactive: 22 µM |
| CCC1(CC)CC(=NNS(=O)(=O)c2ccc(C)cc2)C1 | inactive: > 100 µM |
| CC(C)(C)OC(=O)NC(CCC(=O)OCc1ccccc1)C(=O)NCCCO (stereo not drawn) | inactive: > 100 µM |
| CN/C(=N\N=C1/C(=O)Nc2ccccc21)SCC(=O)c1ccc(Br)cc1 | inactive: 13.5 µM |
| Cc1ccc(C(=O)c2[nH]c(NCc3ccccc3)c(C(=S)Nc3ccccc3)c2N)cc1 | inactive: 2.96 µM |
| Clc1ccc(CSCc2ccc(Cl)cc2Cl)c(Cl)c1 | inactive: > 100 µM |
| C/C(CC(=O)Nc1ccc([N+](=O)[O-])cc1)=N\NC(N)=O | inactive: > 100 µM |
| CCCCOC(=O)NC(Nc1ccc(S(=O)(=O)Nc2ccc(OC)nn2)cc1)(C(F)(F)F)C(F)(F)F | inactive: > 100 µM |
| c1ccc([P+](CCCCCC[P+](c2ccccc2)(c2ccccc2)c2ccccc2)(c2ccccc2)c2ccccc2)cc1 | inactive: 24.8 µM |

Source: ChEMBL document CHEMBL1201862, “PubChem BioAssay data set” (2004)
